In PubChem BioAssay (NCI) one finds TGI and GI50 data, which are given here for 23 molecules.

Structures are written as SMILES. Several values for one entry are separate records, joined by “and”; a condition that tells them apart may be missing. Identical values can stand only once.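 Interpolation was linear, between the two tested concentrations surrounding the appropriate level; five concentrations were tested over 48 hours in 96-well plates. GI50 = concentration required for 50% inhibition of growth. TGI: concentration producing complete growth inhibition.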

This experiment concerns NCI-H322M lung. As to the kind of experiment: growth of human tumour cells (NCI), 48 h.
Molecule `N#C[C@]12CC3(CC[C@H]1CC1(C2)OCCO1)OCCO3` registered a TGI of more than 100 µM.
On the same count and under the same terms, with `O=c1ccc(-c2ccc(-n3ccnc3)cc2)nn1CCO` the figure was more than 100 µM; with `CSC1=C(C)S/C(=C\c2ccc(/C=C3\SC(C)=C(SC)S3)cc2)S1`, more than 100 µM.
On the same count and under the same terms, the same measure for `CC(SC(=S)N1CCCC1)C(=O)Nc1nnc(-c2ccc(Cl)cc2)o1` (stereo not given): more than 100 µM; for `CCC(C)C1=C(O)[N+]2([O-])Oc3ccc(-c4c(O)c(O)c(-c5ccc(O)cc5)c(OC(C)=O)c4OC(C)=O)cc3OC2(C(C)CC)C(=O)N1O` (stereo not given): more than 50 µM; for `Nc1nc([O-])c([I+]c2ccccc2)c(=O)[nH]1`: more than 100 µM.
Still for that read-out and setting: with `O=S(=O)(O)c1cc(S(=O)(=O)O)c2c(N=Nc3ccccc3)c(O)ccc2c1` the figure was more than 100 µM.
`COC(=O)C1C(O)C(C)C(O)C(C)/C=C\C=C(C)C(=O)Nc2c(C)c(OC(C)=O)c3c(c2O)C(=O)C(C)=C2OCOC(=C23)C(C)=CC(C)(O)C(O)C(C)C1O` (stereo not given): the GI50 was 41.9 µM and > 100 µM; the TGI is more than 100 µM.
Molecule `COC(=O)C1=C(O)C(C(=O)OC)[C@]2(O)[C@H](C(=O)OC)[C@H]1C[C@@H](c1ccc(Cl)cc1Cl)[C@H]2C(=O)OC` (stereo not given in full) showed a TGI of 28.2 µM.
In the case of `Clc1ccc(N2COOC3(OOC2)C2CC4CC(C2)CC3C4)cc1`, the GI50 was more than 100 µM and the TGI was more than 100 µM.
`Cc1cc2c(c(C=Nc3ccc(N(C)C)cc3)c1)OC1(C=C2)Oc2ccccc2C(=O)N1C` (stereo not given) showed a TGI of 28.6 µM.
In the case of `COc1cc2c3c(n(CCCO)c(=O)c2cc1OC)-c1cc2c(cc1C3=O)OCO2`, the GI50 was 9.11 µM and the TGI was more than 70.5 µM.
In turn, `N#Cc1c(-c2cccc(Br)c2)cc(-c2ccc(Cl)cc2)nc1N` gave a TGI of more than 100 µM.
As for `COC(=O)/N=[N+](\[O-])C(c1ccc(Cl)cc1)c1ccc(Cl)cc1`, the TGI was more than 100 µM.
In turn, `Cc1nc(C)c(N2CCN(C(=O)NC(CCC(=O)O)C(=O)O)CC2)c(=O)[nH]1` (stereo not given) had a TGI of more than 100 µM.
Consider `O=C(CCl)Nc1ccccc1SCc1cc(Cl)cc2c1OCOC2`, for which the GI50 was 14.4 µM and the TGI stood at 29 µM.
Turning to `N#CC12CCC(O)C(CC1)C2=O` (stereo not given), the TGI is more than 100 µM.
For the molecule `CCN(Cc1ccc(F)cc1F)c1ccc(CO)c(Cl)c1`, the GI50 was 9.9 µM and the TGI was more than 52.4 µM.
In turn, `COc1ccc(-c2c(C#N)c(N)n(C3OCC(O)C(O)C3O)c(=S)c2C#N)cc1` (stereo not given) showed a TGI of more than 100 µM.
In the case of `Cc1c(C(=O)CCl)c(=O)n(-c2ccccc2)n1C`, the GI50 is 9.16 µM and the TGI came out at 21.9 µM.
Regarding `CCOC(=O)/C(=C\NC[C@@H](C)O)c1nc2ccccc2[nH]1`, the TGI was more than 100 µM.
In the case of `CC(C)(C)[Si](C)(C)OC1[C@@H](O[Si](C)(C)C(C)(C)C)[C@@H](CNC(=O)NC(=O)NC(=O)CI)O[C@H]1n1cnc2c(NC(=O)Nc3ccccc3)ncnc21` (stereo not given in full), the GI50 is 12.7 µM and the TGI amounted to 34.8 µM.
`COc1cc(/C=C2\N=C(c3ccccc3)N(c3ccc(S(=O)(=O)Nc4nccs4)cc3)C2=O)ccc1O` gave a TGI of more than 100 µM.
